Where a chain is given by its changes, count along the chain named. The list shows a part of the results.
T1: RBFOX1 RRM (Homo sapiens, UniProt Q9NWB1 109-208)
T1 sequence: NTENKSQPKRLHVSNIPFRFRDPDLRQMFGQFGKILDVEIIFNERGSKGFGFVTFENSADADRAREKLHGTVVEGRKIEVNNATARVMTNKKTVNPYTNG

B1: AAUUUGU (DNA:RNA)
RNA: GGGAGACCGGAAUUCAGAUUGUCCAAUUUGUUUAAAUCCCGUCGUAGCCACCA
DNA 1: CAATCTGAATTCCGGTCTCCC
DNA 2: TGGTGGCTACGACGGGATT
B2: AACCUAA (DNA:RNA)
RNA: B1 RNA with U27C, U28C, G30A, U31A
DNA 1: CAATCTGAATTCCGGTCTCCC
DNA 2: TGGTGGCTACGACGGGATT
B3: UUAUGCU (DNA:RNA)
RNA: B1 RNA with A25U, A26U, U27A, U29G, G30C
DNA 1: CAATCTGAATTCCGGTCTCCC
DNA 2: TGGTGGCTACGACGGGATT
B4: GGGCCUG (DNA:RNA)
RNA: GGGAGACCGGAAUUCAGAUUGUCCGGGCCUGUUAAAUCCCGUCGUAGCCACCA
DNA 1: CAATCTGAATTCCGGTCTCCC
DNA 2: TGGTGGCTACGACGGGATT
B5: UUGAACG (DNA:RNA)
RNA: B4 RNA with G25U, G26U, C28A, C29A, U30C
DNA 1: CAATCTGAATTCCGGTCTCCC
DNA 2: TGGTGGCTACGACGGGATT
B6: UGGCGGG (DNA:RNA)
RNA: B4 RNA with G25U, C29G, U30G
DNA 1: CAATCTGAATTCCGGTCTCCC
DNA 2: TGGTGGCTACGACGGGATT
B7: UCAUAUG (DNA:RNA)
RNA: B4 RNA with G25U, G26C, G27A, C28U, C29A
DNA 1: CAATCTGAATTCCGGTCTCCC
DNA 2: TGGTGGCTACGACGGGATT
B8: UUAGAGG (DNA:RNA)
RNA: B1 RNA with A25U, A26U, U27A, U28G, U29A, U31G
DNA 1: CAATCTGAATTCCGGTCTCCC
DNA 2: TGGTGGCTACGACGGGATT
B9: GCAGGGG (DNA:RNA)
RNA: B4 RNA with G26C, G27A, C28G, C29G, U30G
DNA 1: CAATCTGAATTCCGGTCTCCC
DNA 2: TGGTGGCTACGACGGGATT
B10: UGAAGUA (DNA:RNA)
RNA: B4 RNA with G25U, G27A, C28A, C29G, G31A
DNA 1: CAATCTGAATTCCGGTCTCCC
DNA 2: TGGTGGCTACGACGGGATT
B11: UCACAAC (DNA:RNA)
RNA: B4 RNA with G25U, G26C, G27A, C29A, U30A, G31C
DNA 1: CAATCTGAATTCCGGTCTCCC
DNA 2: TGGTGGCTACGACGGGATT
B12: AAGGCGC (DNA:RNA)
RNA: B1 RNA with U27G, U28G, U29C, U31C
DNA 1: CAATCTGAATTCCGGTCTCCC
DNA 2: TGGTGGCTACGACGGGATT
B13: AGUUUCA (DNA:RNA)
RNA: B1 RNA with A26G, G30C, U31A
DNA 1: CAATCTGAATTCCGGTCTCCC
DNA 2: TGGTGGCTACGACGGGATT
B14: UACCGAA (DNA:RNA)
RNA: B1 RNA with A25U, U27C, U28C, U29G, G30A, U31A
DNA 1: CAATCTGAATTCCGGTCTCCC
DNA 2: TGGTGGCTACGACGGGATT
B15: CGUGCCC (DNA:RNA)
RNA: B4 RNA with G25C, G27U, C28G, U30C, G31C
DNA 1: CAATCTGAATTCCGGTCTCCC
DNA 2: TGGTGGCTACGACGGGATT
B16: UAACGGC (DNA:RNA)
RNA: B1 RNA with A25U, U27A, U28C, U29G, U31C
DNA 1: CAATCTGAATTCCGGTCTCCC
DNA 2: TGGTGGCTACGACGGGATT
B17: UGGUGGA (DNA:RNA)
RNA: B1 RNA with A25U, A26G, U27G, U29G, U31A
DNA 1: CAATCTGAATTCCGGTCTCCC
DNA 2: TGGTGGCTACGACGGGATT
B18: UUGUUGG (DNA:RNA)
RNA: B1 RNA with A25U, A26U, U27G, U31G
DNA 1: CAATCTGAATTCCGGTCTCCC
DNA 2: TGGTGGCTACGACGGGATT
B19: CCCGUGU (DNA:RNA)
RNA: B1 RNA with A25C, A26C, U27C, U28G
DNA 1: CAATCTGAATTCCGGTCTCCC
DNA 2: TGGTGGCTACGACGGGATT
B20: UCUCCGC (DNA:RNA)
RNA: B1 RNA with A25U, A26C, U28C, U29C, U31C
DNA 1: CAATCTGAATTCCGGTCTCCC
DNA 2: TGGTGGCTACGACGGGATT

These binders were tested against T1, RBFOX1 RRM (assay: EMSA; HiTS-Eq, 1 nM pool, 10 min; buffer printed only for the single-RNA assays: 10 mM Tris pH 7.5, 150 mM NaCl, 3.4 mM EDTA, 0.001% NP-40, 30 C). Details: tags: His6 N-terminal (pET28a); label: 5' 32P.
How it was run: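 Purified RbFox RRM (wild type or mutant) was equilibrated for 10 min in 50 µL with 1 nM of a 5′-radiolabelled pool of RNA with 7 randomized nucleotides, its flanks annealed to DNA oligonucleotides, across increasing protein concentrations. Free RNA was separated by 8% native PAGE, excised, reverse-transcribed, PCR-barcoded and sequenced on an Illumina HiSeq 2500. Relative association constants came from read-count changes of each variant against the control reaction, normalised to the cognate motif.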

Binder | binding signal
B1 | 0.00915 KA relative to UGCAUGU
B2 | 0.00115 KA relative to UGCAUGU
B3 | 0.0139 KA relative to UGCAUGU
B4 | 0.0377 KA relative to UGCAUGU
B5 | 0.0189 KA relative to UGCAUGU
B6 | 0.0202 KA relative to UGCAUGU
B7 | 0.00547 KA relative to UGCAUGU
B8 | 0.00624 KA relative to UGCAUGU
B9 | 0.0163 KA relative to UGCAUGU
B10 | 0.0152 KA relative to UGCAUGU
B11 | 0.000715 KA relative to UGCAUGU
B12 | 0.0081 KA relative to UGCAUGU
B13 | 0.00937 KA relative to UGCAUGU
B14 | 0.00574 KA relative to UGCAUGU
B15 | 0.0134 KA relative to UGCAUGU
B16 | 0.00772 KA relative to UGCAUGU
B17 | 0.00965 KA relative to UGCAUGU
B18 | 0.0248 KA relative to UGCAUGU
B19 | 0.0104 KA relative to UGCAUGU
B20 | 0.00688 KA relative to UGCAUGU
